According to article PMC4336329 (PLoS ONE, 2015):
Among all 310,000 compounds or so, about 2,200 (0.71%) showed an effect of 50% or more. Effects have a minus sign here. The list shows a part of the results.

target: human ether-à-go-go-related gene (hERG) potassium channel (human, UniProt Q12809); assay: primary screen, population patch clamp on CHO cells stably expressing hERG
Sequence (Q12809 whole entry, looked up): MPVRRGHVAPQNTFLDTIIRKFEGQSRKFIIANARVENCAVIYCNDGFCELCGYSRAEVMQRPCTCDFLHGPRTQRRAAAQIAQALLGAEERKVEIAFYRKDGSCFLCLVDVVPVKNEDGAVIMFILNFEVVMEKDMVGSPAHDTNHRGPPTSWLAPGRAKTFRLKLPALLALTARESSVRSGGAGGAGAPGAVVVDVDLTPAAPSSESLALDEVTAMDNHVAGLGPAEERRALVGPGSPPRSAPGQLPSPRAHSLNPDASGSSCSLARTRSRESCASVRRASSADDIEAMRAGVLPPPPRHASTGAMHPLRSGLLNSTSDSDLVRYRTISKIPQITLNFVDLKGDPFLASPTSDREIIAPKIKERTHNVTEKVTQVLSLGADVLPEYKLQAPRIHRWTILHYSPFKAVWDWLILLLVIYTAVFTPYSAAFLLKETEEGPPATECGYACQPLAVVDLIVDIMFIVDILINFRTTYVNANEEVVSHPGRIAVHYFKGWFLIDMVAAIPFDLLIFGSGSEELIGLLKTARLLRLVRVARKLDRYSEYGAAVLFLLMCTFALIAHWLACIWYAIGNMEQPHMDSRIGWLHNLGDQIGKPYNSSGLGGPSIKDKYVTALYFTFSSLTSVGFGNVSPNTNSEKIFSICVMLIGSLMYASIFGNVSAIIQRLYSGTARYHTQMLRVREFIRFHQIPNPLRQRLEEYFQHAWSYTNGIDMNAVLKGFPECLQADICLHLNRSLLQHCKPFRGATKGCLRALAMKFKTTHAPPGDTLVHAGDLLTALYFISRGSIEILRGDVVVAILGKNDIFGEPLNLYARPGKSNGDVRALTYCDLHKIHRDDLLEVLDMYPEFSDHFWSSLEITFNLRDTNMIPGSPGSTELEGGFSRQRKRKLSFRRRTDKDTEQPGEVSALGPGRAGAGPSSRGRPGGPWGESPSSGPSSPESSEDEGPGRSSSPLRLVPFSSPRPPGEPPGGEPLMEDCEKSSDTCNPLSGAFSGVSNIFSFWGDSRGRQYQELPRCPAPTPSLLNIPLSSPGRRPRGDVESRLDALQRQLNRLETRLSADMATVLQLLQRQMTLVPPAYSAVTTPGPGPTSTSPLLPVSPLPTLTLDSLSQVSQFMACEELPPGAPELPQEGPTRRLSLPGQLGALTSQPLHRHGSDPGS

| SMILES | hERG current change (%, negative = inhibition) at 1uM [%] |
| --- | --- |
| CCOC(=O)C(NC(C)=O)C(=O)Nc1c(C)cccc1C (centres unmarked) | 0.521 |
| COc1cccc(NC(=O)C(=O)NCCC2CCCCN2S(=O)(=O)c2cccs2)c1 (centres unmarked) | 9.71 |
| CCOC(=O)c1c(-c2cccc([N+](=O)[O-])c2)csc1NC(=O)C1CCCCC1 | 25 |
| O=C(Nc1ccc(-c2cnco2)cc1)c1ccc(Cl)cc1 | 9.33 |
| Cc1ccc(NC(=O)C2CCCN(S(=O)(=O)c3ccc4[nH]c(=O)ccc4c3)C2)c(C)c1 (centres unmarked) | 4.85 |
| CCC/C(=N\NC(=O)C1CCCC1)c1ccccc1 | 8.85 |
| CCC(C(=O)Nc1ccccc1C(=O)N1CCCC1)N1C(=O)c2ccccc2C1=O (centres unmarked) | -5.5 |
| COc1cccc(NC(=S)N(CCCN2CCCC2)Cc2ccco2)c1 | -9.86 |
| Cl.OCCNc1nc(Nc2cccc(O)c2)nc2ccccc12 | -5.97 |
| CCc1ccccc1NC(=O)CSC1=C(C#N)C(c2ccc3c(c2)OCO3)C2=C(CCCC2=O)N1 (centres unmarked) | 11.7 |
| CC(C)NC(=O)c1noc2cc([N+](=O)[O-])ccc12 | 10.2 |
| O=C(CSc1nnc(-c2ccco2)n1Cc1ccco1)Nc1ccccc1 | -6.32 |
| Cl.O=C1[C@H]2CCCC[C@H]2C(=O)N1CCCCN1CCN(c2nsc3ccccc23)CC1 | -44.9 |
| COc1ccc(-n2nnnc2SCC(=O)NCCc2ccccc2)cc1OC | 10.1 |
| Cc1nn(-c2ccccc2)c2c1C(O)CC(C)(C)C2 (centres unmarked) | 15 |
| Cc1cccc(NC(=O)CCC(=O)N2CCOCC2)n1 | 8.62 |
| O=C(COc1coc(CN2CCN(c3ccccc3F)CC2)cc1=O)NC1CCCCC1 | 2.87 |
| CC(C)CC(=O)Nc1c2c(nn1-c1ccc([N+](=O)[O-])cc1)CS(=O)(=O)C2 | -0.629 |
| O=C(N/N=C/c1ccc([N+](=O)[O-])cc1)c1cccs1 | 12.4 |

| SMILES | hERG current change (%, negative = inhibition) at 1uM [%] |
| --- | --- |
| O=C(Cn1nc(Cc2cccnc2)c2ccccc2c1=O)N1CCN(C(=O)c2ccco2)CC1 | 4.49 |
| CC1CCCC2(C1)NC(=S)c1c(sc3c1CCCC3)N2 (centres unmarked) | 9.02 |
| COC(=O)c1c(C)[nH]c(O)c1C=Nc1ccc(C(C)C)cc1 | 9.72 |
| CCOc1ccc(/C=C(/NC(=O)c2ccccc2)C(=O)NCCC(=O)O)cc1 | 13.2 |
| Cc1cccc(N2C(=O)CC(N3CCN(Cc4ccc(Cl)cc4)CC3)C2=O)c1 (centres unmarked) | 3.11 |
| COC(C(=O)Nc1ccc(C(C)=O)cc1)c1ccccc1 (centres unmarked) | 10.8 |
| Cc1c(C)c2ccc(OCC(=O)Nc3cccnc3)cc2oc1=O | 12.6 |
| O=C(Cc1cccs1)N/N=C/C=C/c1ccccc1 | 15.8 |
| Nc1nonc1C(=O)NCCNc1ncccc1[N+](=O)[O-] | -1.99 |
| Nc1nnc(SCC(=O)N2CCCCC2)s1 | 6.3 |
| Cn1c(=O)n(Cc2ccccc2F)c(=O)c2c1nc1n2CCCN1CCc1ccccc1 | 13.3 |
| COc1ccccc1C1CC(c2ccc(F)cc2)Nc2ncnn21 (centres unmarked) | 4.74 |
| COC(=O)c1c(-c2ccc(C)cc2)csc1NC(=O)C1CC=CCC1C(=O)O (centres unmarked) | 12.5 |
| Cc1ccc(NC(=O)C(Cc2ccccc2)N2C(=O)C3C4CCC(C4)C3C2=O)cc1Cl (centres unmarked) | 5.09 |
| COc1cc(C=O)c(Br)cc1OC1CCCC1 | 14.1 |
| COc1ccc(C)cc1S(=O)(=O)N1CCN(Cc2ccccc2)CC1 | -1.43 |
| CC1CCc2c(sc(NC(=O)COC(=O)c3ccccc3NCc3ccco3)c2C#N)C1 (centres unmarked) | 12.9 |
| COc1cc(OC)cc(C(=O)NNC(=O)CCOc2ccccc2OC)c1 | 9.43 |
| COc1ccccc1C(=O)Nc1ccc(OCc2nnc3c4ccccc4c(C)nn23)cc1 | 9.8 |

| SMILES | hERG current change (%, negative = inhibition) at 1uM [%] |
| --- | --- |
| Cc1ccc(NC(=O)NC2=N/C(=C(/C#N)C(=O)N3CCCC3)c3ccccc32)cc1 | 9.06 |
| CCOC(=O)C1(c2ccccc2)CCN(CCC(=O)Nc2ccccc2OC)CC1 | 8.38 |
| N/C(CS(=O)(=O)c1ccccc1)=N\OC(=O)c1ccc(F)cc1 | 7.75 |
| CN(CC(=O)Nc1nc2ccccc2s1)S(=O)(=O)c1ccc(Cl)cc1 | 8.16 |
| CC1(c2ccc(Cl)cc2)NC(=O)N(CC(=O)NCc2ccc(F)cc2)C1=O (centres unmarked) | -2.24 |
| Cc1ccc(NC(=O)CCCN2C(=S)NC(C)(C)CC2C)cc1 (centres unmarked) | 0.355 |
| CCN(CC)C(=O)c1sc(NC(=O)c2ccc3c(c2)OCO3)c(C#N)c1C | 7.64 |
| COC(=O)c1cccc(C(=O)N2CCCC(CCC(=O)N(C)CCc3ccccn3)C2)c1 (centres unmarked) | 7.24 |
| CC(=O)NC(Cc1ccccc1C)C(=O)NC1CCN(c2ncccc2[N+](=O)[O-])CC1 (centres unmarked) | 10 |
| Cc1ccc(SCCNC(=O)c2ccc(CN3CCOCC3)cc2)cc1 | 2.26 |
| COc1cccc(NC(=O)C(c2ccccc2)N2CCCC2)c1 (centres unmarked) | 8.97 |
| CCn1c(COc2cccc(OC)c2)nnc1SCC(=O)N1CCOCC1 | -7.97 |
| CCOC(=O)c1sc(NC(=O)/C=C/c2ccccc2)nc1C | 11.9 |
| O=C(CCCCC(=O)Nc1ccccc1)Nc1ccccc1 | 26.6 |
| COc1ccc(-n2c(=O)c3c4c(sc3n3c(=S)[nH]nc23)COC(C(C)C)C4)cc1 (centres unmarked) | 15.1 |
| Nc1sccc1C(=O)c1ccccc1 | 7.73 |
| O=c1c(Cl)c(N2CCC3(CC2)OCCO3)cnn1C12CC3CC(CC(C3)C1)C2 | 11.2 |
| O=C(NC1CCCC1)C(c1cccnc1)N(C(=O)c1csnn1)c1ccccc1Cl (centres unmarked) | -1.58 |
